Measured values reported in paper PMC8166750 (The Journal of Biological Chemistry, 2021).
Residue numbers refer to the chain shown, from its start.

Experiments:
ckP2X7^WT = target: T1, ckP2X7^WT (Gallus gallus, UniProt A0A8V1A1T0); assay: ATP concentration-response, perforated patch clamp in HEK293 cells; format: cell-based, chicken (Gallus gallus domesticus)
T1 sequence (A0A8V1A1T0 15-574): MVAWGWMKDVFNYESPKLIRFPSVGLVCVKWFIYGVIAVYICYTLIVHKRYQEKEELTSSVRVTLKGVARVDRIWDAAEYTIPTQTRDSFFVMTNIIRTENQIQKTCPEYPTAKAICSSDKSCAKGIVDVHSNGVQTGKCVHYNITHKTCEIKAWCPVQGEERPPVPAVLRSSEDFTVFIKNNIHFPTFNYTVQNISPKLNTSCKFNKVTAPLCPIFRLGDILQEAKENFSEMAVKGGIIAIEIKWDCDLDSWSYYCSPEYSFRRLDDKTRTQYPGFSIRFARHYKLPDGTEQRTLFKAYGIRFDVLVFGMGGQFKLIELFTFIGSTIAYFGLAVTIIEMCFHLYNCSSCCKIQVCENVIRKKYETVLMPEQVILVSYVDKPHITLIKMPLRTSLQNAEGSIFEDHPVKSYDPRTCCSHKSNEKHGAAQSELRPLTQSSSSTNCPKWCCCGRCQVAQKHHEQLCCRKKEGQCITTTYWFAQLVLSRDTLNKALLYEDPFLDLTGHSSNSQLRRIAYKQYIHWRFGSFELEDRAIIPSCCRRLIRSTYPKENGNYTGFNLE

pdP2X7^D121A = target: T2, pdP2X7^D121A (Ailuropoda melanoleuca, UniProt G1M6C4, D122A); assay: as above; format: cell-based, giant panda (Ailuropoda melanoleuca)
T2 sequence (G1M6C4 2-606 D122A): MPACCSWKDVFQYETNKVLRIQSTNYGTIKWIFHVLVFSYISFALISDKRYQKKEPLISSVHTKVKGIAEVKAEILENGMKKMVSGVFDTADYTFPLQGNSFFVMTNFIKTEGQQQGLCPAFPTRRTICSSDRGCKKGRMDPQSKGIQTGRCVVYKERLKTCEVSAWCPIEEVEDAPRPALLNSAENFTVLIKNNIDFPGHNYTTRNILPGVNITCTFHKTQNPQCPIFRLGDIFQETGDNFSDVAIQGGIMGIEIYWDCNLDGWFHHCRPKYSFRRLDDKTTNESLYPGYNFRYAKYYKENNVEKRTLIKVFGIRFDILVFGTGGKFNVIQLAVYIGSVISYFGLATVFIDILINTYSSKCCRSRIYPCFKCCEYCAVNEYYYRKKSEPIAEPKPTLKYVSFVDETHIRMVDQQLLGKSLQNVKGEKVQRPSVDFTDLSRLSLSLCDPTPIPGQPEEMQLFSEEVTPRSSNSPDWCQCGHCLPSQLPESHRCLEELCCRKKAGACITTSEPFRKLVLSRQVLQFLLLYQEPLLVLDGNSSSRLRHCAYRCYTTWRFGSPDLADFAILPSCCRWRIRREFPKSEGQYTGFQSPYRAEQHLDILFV

zfP2X4^E121A/r-beak = target: T3, zfP2X4^E121A/r-beak (Danio rerio, UniProt F8W463, A142T/D145S/E121A/F139S/G144S/K136T/N140V/R137P/R143H/R148A); assay: ATP concentration-response, chimera, perforated patch clamp in HEK293 cells
T3 sequence (F8W463 1-389 E121A/K136T/R137P/F139S/N140V/A142T/R143H/G144S/D145S/R148A): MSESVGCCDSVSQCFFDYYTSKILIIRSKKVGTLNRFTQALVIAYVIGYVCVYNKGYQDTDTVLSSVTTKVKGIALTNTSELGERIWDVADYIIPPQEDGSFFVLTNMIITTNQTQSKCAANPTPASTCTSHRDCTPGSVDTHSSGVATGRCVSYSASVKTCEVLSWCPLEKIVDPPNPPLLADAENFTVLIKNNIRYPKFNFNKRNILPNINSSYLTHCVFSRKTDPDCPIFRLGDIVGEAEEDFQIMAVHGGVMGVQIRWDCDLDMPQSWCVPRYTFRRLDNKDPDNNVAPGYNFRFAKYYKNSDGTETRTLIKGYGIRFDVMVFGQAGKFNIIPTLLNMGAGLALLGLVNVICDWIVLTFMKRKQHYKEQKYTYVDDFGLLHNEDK

hP2X3^E109A = target: T4, hP2X3^E109A (Homo sapiens, UniProt P56373, E109A); assay: ATP concentration-response, perforated patch clamp in HEK293 cells; format: cell-based
T4 sequence (P56373 1-397 E109A): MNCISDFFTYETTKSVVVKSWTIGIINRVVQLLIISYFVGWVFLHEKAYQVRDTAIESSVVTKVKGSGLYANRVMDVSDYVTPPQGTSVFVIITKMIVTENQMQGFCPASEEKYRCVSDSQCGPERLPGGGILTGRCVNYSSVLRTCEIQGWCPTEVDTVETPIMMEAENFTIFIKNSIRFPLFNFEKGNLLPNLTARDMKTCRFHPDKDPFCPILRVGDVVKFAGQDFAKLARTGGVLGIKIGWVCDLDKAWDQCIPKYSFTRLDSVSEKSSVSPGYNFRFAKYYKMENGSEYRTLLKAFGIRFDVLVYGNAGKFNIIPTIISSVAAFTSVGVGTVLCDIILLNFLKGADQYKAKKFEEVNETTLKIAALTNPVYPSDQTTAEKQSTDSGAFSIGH

hP2X3^WT = target: T5, hP2X3^WT (Homo sapiens, UniProt P56373); assay: as above; format: cell-based
T5 sequence (P56373 1-397): T4 sequence (P56373 1-397 E109A) with A109E

With `Nc1ncnc2c1ncn2[C@@H]1O[C@H](COP(=O)(O)OP(=O)(O)OP(=O)(O)O)[C@@H](O)[C@H]1O` [ATP] the “nH (Hill coefficient) of ATP” value (ckP2X7^WT) was 1.14 ± 0.16, the EC50 (pdP2X7^D121A) was 96.6 ± 10.9 µM and the “nH (Hill coefficient) of ATP” value (pdP2X7^D121A; pdP2X7^D121A) was 1.53 ± 0.24. For the same compound, the EC50 (zfP2X4^E121A/r-beak) was > 1000 µM, the EC50 (hP2X3^E109A) was 0.58 ± 0.07 µM and the “nH (Hill coefficient) of ATP” value (hP2X3^E109A; hP2X3^E109A) was 1.02 ± 0.18. The EC50 (hP2X3^WT) was 0.45 ± 0.07 µM.
